# Measurements from publication PMC4336329 (PLoS ONE, 2015).
# Screen size: about 310,000 compounds; about 14,000 (4.5%) showed an effect of 50% or more. Effects have a minus sign here. The list shows a part of the results.
# Molecular target: human ether-à-go-go-related gene (hERG) potassium channel (human, UniProt Q12809)
# Assay: primary screen, population patch clamp on CHO cells stably expressing hERG
# 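Note: peak tail current of the secondary pulse compared with the same well before compound.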
# Chain of human ether-à-go-go-related gene (hERG) potassium channel (Q12809 whole entry, looked up): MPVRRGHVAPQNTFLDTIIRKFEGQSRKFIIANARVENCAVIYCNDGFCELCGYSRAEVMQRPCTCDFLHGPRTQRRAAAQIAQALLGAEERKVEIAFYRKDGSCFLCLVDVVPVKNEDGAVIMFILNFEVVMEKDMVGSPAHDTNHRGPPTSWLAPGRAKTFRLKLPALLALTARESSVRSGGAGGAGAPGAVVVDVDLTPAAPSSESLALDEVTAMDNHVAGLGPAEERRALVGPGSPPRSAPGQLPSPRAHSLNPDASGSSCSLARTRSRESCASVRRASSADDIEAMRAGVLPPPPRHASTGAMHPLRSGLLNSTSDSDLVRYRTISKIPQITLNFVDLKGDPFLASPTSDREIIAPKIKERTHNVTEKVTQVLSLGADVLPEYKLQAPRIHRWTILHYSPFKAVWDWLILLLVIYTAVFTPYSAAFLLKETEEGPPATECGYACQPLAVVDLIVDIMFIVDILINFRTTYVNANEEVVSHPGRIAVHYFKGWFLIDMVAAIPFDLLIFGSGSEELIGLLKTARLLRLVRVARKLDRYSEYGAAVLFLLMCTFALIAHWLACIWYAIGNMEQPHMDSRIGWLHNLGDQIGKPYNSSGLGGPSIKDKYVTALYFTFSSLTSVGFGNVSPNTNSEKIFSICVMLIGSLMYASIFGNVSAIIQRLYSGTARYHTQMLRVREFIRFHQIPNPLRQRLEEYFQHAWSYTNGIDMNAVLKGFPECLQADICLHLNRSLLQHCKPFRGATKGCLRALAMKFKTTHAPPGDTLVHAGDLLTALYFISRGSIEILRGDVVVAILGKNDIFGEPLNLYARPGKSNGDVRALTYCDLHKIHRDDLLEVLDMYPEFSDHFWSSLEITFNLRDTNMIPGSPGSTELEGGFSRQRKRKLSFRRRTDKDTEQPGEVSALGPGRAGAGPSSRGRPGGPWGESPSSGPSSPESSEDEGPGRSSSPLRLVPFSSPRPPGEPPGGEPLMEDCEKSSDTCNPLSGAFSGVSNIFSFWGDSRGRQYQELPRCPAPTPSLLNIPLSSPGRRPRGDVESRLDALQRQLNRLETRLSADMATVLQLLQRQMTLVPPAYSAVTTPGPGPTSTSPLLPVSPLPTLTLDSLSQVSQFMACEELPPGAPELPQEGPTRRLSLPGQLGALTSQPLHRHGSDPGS
row,Compound,"hERG current change (%, negative = inhibition) at 10uM [%]"
1,O=C(CN(C(=O)c1ccc(Cl)cc1)N1C(=O)C2C3C=CC(C3)C2C1=O)c1cccs1 (stereo not drawn),10.7
2,Cc1ccc(C(=O)N2CCc3ccccc32)cc1,-7.42
3,CCc1ccccc1OCC(=O)Nc1cccc(S(=O)(=O)NC2=NCCC2)c1,-0.499
4,COc1cc(C(=O)OC2C[C@H]3CC[C@@H](C2)N3C)ccc1O (stereo partly drawn),-7
5,CCNc1nc(C)c(CN(C(C)=O)c2ccccc2)nc1C#N,-7.57
6,CCOc1ccc(NC(=O)CN(C)C(=O)CCSc2ccc(F)cc2)cc1OCC,-34.4
7,CC1CCCC(C)N1S(=O)(=O)c1ccc(Cl)cc1 (stereo not drawn),-3.38
8,CCn1nnnc1SCC(=O)NCc1ccco1,13.2
9,O=C(O)CN1C(=O)CC(c2ccccc2)CC1=O,20.6
10,CC(=O)Nc1ccc(NC(=O)CSc2nnc(-c3ccc(NS(C)(=O)=O)cc3)n2C)cc1C,17.2
11,COCCn1c(-c2ccc(SC)cc2)nc2c1c(=O)[nH]c(=O)n2CC(C)C,-19.3
12,CN(/N=C/c1ccc(N(C)C)cc1)C1=NS(=O)(=O)c2ccccc21,20.6
13,COc1ccc(NC(=O)Cn2nc(C)c3ccccc3c2=O)cc1,-1.81
14,COc1ccc(C(=O)NCCC2=CCCCC2)cc1OC1CCN(C(C)C)CC1,-78.1
15,CC1CCCCN1C(=O)/C(=C\c1ccccc1)c1ccccc1 (stereo not drawn),-17.4
16,Cc1cccc(OCCCC(=O)Nc2nc3ccccc3[nH]2)c1,18.9
17,O=S(=O)(NC(=S)NC1CCCCC1)c1ccccc1,20.1
18,N#Cc1ccc(OCC(=O)n2cc(C(=O)c3cc(Cl)cc(Cl)c3O)cn2)cc1,17.5
19,CCOC(=O)CCNC(=O)CCNC(=O)C(c1ccccc1)c1ccccc1,-9.62
20,O=C(c1ccc(Br)cc1)c1coc2ccc(O)cc12,-5.64
21,COc1ccccc1OCC(=O)N1CCN(C(=O)c2ccco2)CC1,-0.256
22,CN(C)c1cccc(C(=O)Nc2nc3ccccc3[nH]2)c1,-8.39

row,Compound,"hERG current change (%, negative = inhibition) at 10uM [%]"
1,N#C/C=C1\Sc2ccccc2C(=O)N1CC(=O)N1CCN(S(=O)(=O)c2ccccc2)CC1,-3.58
2,CCNC(=O)NCCc1c[nH]c2ccc(Cl)cc12,-14.6
3,COC(=O)c1ccc(Cl)c(NC(C)=O)c1,5.86
4,COc1ccc(N2CCN(CC(O)COCCOc3ccc(Br)cc3)CC2)cc1.Cl (stereo not drawn),-69.1
5,Cc1ccc(C(=O)Oc2cccnc2)cc1[N+](=O)[O-],0.932
6,CC(C)C(=O)N1CCN(c2ccc(NC(=O)c3cccs3)cc2Cl)CC1,-14.7
7,COC(=O)c1sccc1NC(=S)Nc1ccccc1,-5.93
8,CSc1ccccc1NC(=O)c1ccc(C)o1,-13.2
9,CCCCc1nc2cc(C(=O)N3CCCCC3CCO)ccc2o1 (stereo not drawn),10.1
10,O=C(Nc1ccccc1)/C(=C\c1ccccc1)NC(=O)c1ccco1,9.26
11,CC(=O)N/C(=C\c1cccc([N+](=O)[O-])c1)C(=O)NC(C)C,2.75
12,Cc1ccc(-c2csc3ncn(CC(=O)O)c(=O)c23)cc1C,11.8
13,Cc1ccc(S(=O)(=O)N2CCC(c3nnc(SCCN4CCCC4)n3C)CC2)cc1,17.7
14,CCOc1cc(C2c3c(oc4ccccc4c3=O)C(=O)N2c2nccs2)ccc1O (stereo not drawn),-4.25
15,Cc1cc(C(=O)OCC(=O)c2ccc(Br)s2)no1,0.238
16,COc1ccc(NC(=O)C2CCN(c3nc(C)nc4c3CCC4)CC2)cc1,-42.4
17,Cc1ccc(C)c(S(=O)(=O)N2CCN(Cc3cc4c(cc3O)OCO4)CC2)c1,3.4
18,Cc1ccc(NC(=O)CSc2nnc(N)s2)c([N+](=O)[O-])c1,15.6
19,Cc1ccc(C)c2c1[nH]c1ccccc12,6.67
20,COC(=O)c1oc2ccc(Br)cc2c1NC(=O)CCCN1C(=O)c2ccccc2C1=O,17.1
21,NC(=O)c1nsc(C(=O)N(CC(=O)NCc2ccccc2)c2cccc(F)c2)c1N,-12.4
22,C=CCn1c(SCC(=O)N2CCCC2)nc2scc(-c3cccs3)c2c1=O,-13.4

row,Compound,"hERG current change (%, negative = inhibition) at 10uM [%]"
1,O=C(Nc1nnc(SCc2ccc(F)cc2)s1)C1Cc2ccccc2CN1C(=O)c1ccco1 (stereo not drawn),-6.55
2,CC(OC(=O)c1ccc2c(c1)OCCO2)C(=O)c1ccccc1 (stereo not drawn),4.44
3,CCOC(=O)C1=CC[C@H]2c3c(c4ccccc4n3C)C(=O)C1N2S(=O)(=O)c1ccc(C)cc1,-4.05
4,COCC(C)NC(=O)c1ccc2nc(-c3ccccc3)c(-c3ccccc3)nc2c1 (stereo not drawn),9.84
5,C[C@H](C(=O)CC(=O)OC(C)(C)C)[C@H](O)c1ccc(C(F)(F)F)cc1,8.11
6,COc1ccc(C(CC(=O)N2CCCC(C)C2)c2c(O)cc(OC)cc2OC)cc1 (stereo not drawn),7.15
7,CC(C)CCN1C(Nc2ccccc2)=NC[C@@H]1Cc1ccccc1,-47.9
8,CC1CCCC(C)N1C(=O)c1cc(F)c(F)cc1Cl (stereo not drawn),16.1
9,Cc1cccc(NC(NC(=O)Cc2ccccc2)C(Cl)(Cl)Cl)c1 (stereo not drawn),4.08
10,Cc1nc2nc(CSc3ccc(Cl)cc3)cc(=O)n2[nH]1,9.76
11,COc1ccc(Cc2[nH]n3c(=O)cc(C(C)C)nc3c2-c2ccccc2)cc1,7.6
12,COc1ccc(NC(=O)C2CCCN2S(=O)(=O)c2ccc3c(c2)CCC(=O)N3)cc1 (stereo not drawn),-31.1
13,COC(=O)c1cc(NS(=O)(=O)c2cccc(Cl)c2)ccc1N1CCOCC1,2.66
14,Cc1cc(C)n(-c2ccc(F)cc2)c(=O)c1C(=O)O,-9.32
15,COc1ccc(CCNC(=O)C(CC(C)C)NC(N)=O)cc1 (stereo not drawn),9.22
16,CC(C)CCNC(=O)CCn1nc(-c2ccc(Cl)cc2)ccc1=O,-54.6
17,O=C(CSc1nc(-c2ccco2)cc(C(F)(F)F)n1)Nc1ccc(C(=O)N2CCCCC2)cc1,-27
18,COc1ccc(CN(CC2CCC(C(=O)O)CC2)C(=S)Nc2cccc(C)c2)cc1 (stereo not drawn),-2.44
19,COc1ccc(C(=O)N/N=C(\C)CC(=O)Nc2ccccn2)cc1OC,10.6
20,Cc1ccn(CCC(=O)N2CCCC(CCC(=O)NCc3ccc(F)c(F)c3)C2)n1 (stereo not drawn),4.14
21,COc1ccc(CC(=O)Nc2oc(-c3ccccc3)c(-c3ccccc3)c2C#N)cc1OC,10.7
22,CCc1cc(C(=O)OC)c(NC(=O)CCCC(=O)O)s1,17.6

row,Compound,"hERG current change (%, negative = inhibition) at 10uM [%]"
1,CCOC(=O)C(C)(C)Sc1ncnc2nc[nH]c12,2.36
2,O=C(N/N=C/c1ccc(OC(=O)c2ccccc2)cc1)c1cccc(O)c1,15.4
3,NC(=O)c1cc2c3ccccc3ccn2c1-c1ccccc1,4.48
4,CCOC(=O)C(O)(c1ccc(NC(=O)c2ccc(Cl)c(Cl)c2)cc1)C(F)(F)F (stereo not drawn),-4.61
5,COc1cc(Br)cc2cc(C(=O)OC3CCN(C)CC3)c(=O)oc12,-10.1
6,CCOc1ccc(CNC(=O)NS(=O)(=O)c2ccc(OC)cc2)cc1,24.5
7,O=C(CCc1ccccc1)Nc1cccc([N+](=O)[O-])c1,-20
8,CC(C)Sc1nc(N2CCOCC2)c2c(c1C#N)CC(C)(C)N(C)C2,-25.5
9,COc1ccccc1-c1c(C)nn2c(N3CCC4(CC3)OCCO4)cc(C)nc12,7.78
10,O=C(Nc1cccc(-c2cn3c(n2)SCC3)c1)c1ccc2ccccc2n1,44.5
11,O=C(O)c1ccccc1C(=O)c1ccc2c(c1)N(Cc1ccc(Cl)c(Cl)c1)C(=O)CO2,6.25
12,CCc1nc(OCc2ccccc2)c2sc3nc4c(cc3c2n1)COC(C)(C)C4,-1.33
13,Cc1cc(=O)oc2cc(OCc3ccc(C(=O)OCC(=O)NC4CCS(=O)(=O)C4)cc3)ccc12 (stereo not drawn),0.112
14,O=C(CCNC(=O)Cn1ccc2ccccc2c1=O)NCCN1CCc2ccccc2C1,4.01
15,O=C(CSc1nnnn1Cc1ccccc1)N1CCN(c2ccccc2)CC1,-44.1
16,O=C(COc1ccc(-c2ccccc2)cc1)NNC(=O)Nc1ccccc1,-2.73
17,CC1(C)OC(C)(C)/C(=C\c2ccccc2[N+](=O)[O-])C1=O,-0.461
18,COc1ccc(C2=NS(=O)(=O)N(C)C(C(=O)N3CCCCC3)=C2)cc1OC,-4.54
19,CC(=O)Nc1ccc(C(=O)NNC(=O)C2C3CCCCC32)cc1 (stereo not drawn),-0.576
20,CCCCn1c(N)c(N(CCC(C)C)C(=O)c2ccc3c(c2)OCCO3)c(=O)[nH]c1=O,15.1
21,CCn1cc(CNC(=O)CSc2nc(-c3ccc(OC)c(OC)c3)cc(C(F)(F)F)n2)c(C)n1,0.558
